MIC of clinical N. gonorrhoeae isolates (2015-2017) by agar dilution on GC agar with 1% IsoVitaleX (ranges not stated); higher = less susceptible. No active / inactive call per row; the paper counts benzylpenicillin above 1 and ceftriaxone above 0.125 mg/L as resistant (EUCAST). The method is stated for benzylpenicillin and ceftriaxone and assumed for the other drugs. '<=' is inferred from pile-ups at the end values. Isolates are numbered anew.
Legend:
Experiment in all cases: Agar dilution on enriched GC agar; resistance determinants by microarray.
spectinomycin = compound: CN[C@@H]1[C@H](O)[C@H](NC)[C@H]2O[C@@]3(O)C(=O)C[C@@H](C)O[C@H]3O[C@@H]2[C@H]1O [spectinomycin]
benzylpenicillin = compound: CC1(C)S[C@@H]2[C@H](NC(=O)Cc3ccccc3)C(=O)N2[C@H]1C(=O)O [benzylpenicillin]
ceftriaxone = compound: CO/N=C(\C(=O)N[C@@H]1C(=O)N2C(C(=O)O)=C(CSc3nc(=O)c(O)nn3C)CS[C@H]12)c1csc(N)n1 [ceftriaxone]
azithromycin = compound: CC[C@H]1OC(=O)[C@H](C)[C@@H](O[C@H]2C[C@@](C)(OC)[C@@H](O)[C@H](C)O2)[C@H](C)[C@@H](O[C@@H]2O[C@H](C)C[C@H](N(C)C)[C@H]2O)[C@](C)(O)C[C@@H](C)CN(C)[C@H](C)[C@@H](O)[C@]1(C)O [azithromycin]
tetracycline = compound: CN(C)[C@@H]1C(O)=C(C(N)=O)C(=O)[C@@]2(O)C(O)=C3C(=O)c4c(O)cccc4[C@@](C)(O)[C@H]3C[C@@H]12 [tetracycline]

| Test System | MIC (spectinomycin) [µg/mL] | MIC (benzylpenicillin) [µg/mL] | MIC (ceftriaxone) [µg/mL] | MIC (azithromycin) [µg/mL] | MIC (tetracycline) [µg/mL] |
| --- | --- | --- | --- | --- | --- |
| Neisseria gonorrhoeae isolate 376 (blaTEM plasmid: no, gyrA: wild type, mtrR promoter: wild type, parC: wild type, penA: wild type, ponA: wild type, porB: wild type, rpsJ: wild type, tetM plasmid: no) | 32 | ≤ 0.015 | ≤ 0.002 | 0.03 | 0.25 |
| Neisseria gonorrhoeae isolate 208 (blaTEM plasmid: no, gyrA: wild type, mtrR promoter: wild type, parC: wild type, penA: ins345Asp, ponA: wild type, porB: wild type, rpsJ: Met57, tetM plasmid: no) | 16 | 0.12 | 0.004 | 0.5 | 1 |
| Neisseria gonorrhoeae isolate 233 (blaTEM plasmid: no, gyrA: wild type, mtrR promoter: wild type, parC: wild type, penA: ins345Asp, ponA: wild type, porB: wild type, rpsJ: wild type, tetM plasmid: no) | 16 | 0.06 | 0.008 | 0.12 | 0.25 |
| Neisseria gonorrhoeae isolate 12 (blaTEM plasmid: no, gyrA: wild type, mtrR promoter: wild type, parC: wild type, penA: ins345Asp, ponA: wild type, porB: wild type, rpsJ: Met57, tetM plasmid: no) | 16 | 0.12 | ≤ 0.002 | 0.06 | 0.5 |
| Neisseria gonorrhoeae isolate 461 (blaTEM plasmid: no, gyrA: wild type, mtrR promoter: wild type, parC: wild type, penA: wild type, ponA: wild type, porB: wild type, rpsJ: wild type, tetM plasmid: no) | 8 | ≤ 0.015 | ≤ 0.002 | 0.12 | 0.25 |
| Neisseria gonorrhoeae isolate 89 (blaTEM plasmid: no, gyrA: wild type, mtrR promoter: wild type, parC: wild type, penA: ins345Asp, ponA: wild type, porB: wild type, rpsJ: wild type, tetM plasmid: no) | 8 | 0.25 | 0.008 | 0.06 | 1 |
| Neisseria gonorrhoeae isolate 419 (blaTEM plasmid: no, gyrA: Phe91, Gly95, mtrR promoter: -35delA, parC: Arg87, Glu91, penA: ins345Asp, ponA: Pro421, porB: Lys 120, Gly121, rpsJ: Met57, tetM plasmid: no) | 16 | 0.5 | 0.015 | 0.5 | 4 |
| Neisseria gonorrhoeae isolate 302 (blaTEM plasmid: no, gyrA: Phe91, Asn95, mtrR promoter: wild type, parC: wild type, penA: ins345Asp, ponA: Pro421, porB: Asn120, Asp121, rpsJ: Met57, tetM plasmid: no) | 16 | 0.5 | 0.008 | 0.5 | 4 |
| Neisseria gonorrhoeae isolate 166 (blaTEM plasmid: no, gyrA: Thr91, Gly95, mtrR promoter: wild type, parC: wild type, penA: ins345Asp, ponA: wild type, porB: wild type, rpsJ: wild type, tetM plasmid: no) | 16 | 0.25 | ≤ 0.002 | 0.12 | 0.12 |
| Neisseria gonorrhoeae isolate 88 (blaTEM plasmid: no, gyrA: Phe91, Asn95, mtrR promoter: -35delA, parC: Arg87, Glu91, penA: wild type, ponA: Pro421, porB: wild type, rpsJ: Met57, tetM plasmid: no) | 32 | 1 | 0.004 | 0.25 | 1 |
| Neisseria gonorrhoeae isolate 84 (blaTEM plasmid: no, gyrA: Phe91, Asn95, mtrR promoter: -35delA, parC: wild type, penA: ins345Asp, ponA: Pro421, porB: Asn120, Asp121, rpsJ: Met57, tetM plasmid: no) | 16 | 0.5 | 0.03 | 0.25 | 2 |
| Neisseria gonorrhoeae isolate 246 (blaTEM plasmid: no, gyrA: wild type, mtrR promoter: wild type, parC: wild type, penA: wild type, ponA: wild type, porB: wild type, rpsJ: wild type, tetM plasmid: no) | 32 | ≤ 0.015 | ≤ 0.002 | 0.015 | 0.12 |
| Neisseria gonorrhoeae isolate 148 (blaTEM plasmid: no, gyrA: Phe91, Asn95, mtrR promoter: wild type, parC: Arg 87, Glu91, penA: ins345Asp, ponA: Pro421, porB: Gly120, Gly121, rpsJ: Met57, tetM plasmid: no) | 32 | 1 | ≤ 0.002 | 0.25 | 0.5 |
| Neisseria gonorrhoeae isolate 279 (blaTEM plasmid: no, gyrA: wild type, mtrR promoter: wild type, parC: wild type, penA: wild type, ponA: wild type, porB: wild type, rpsJ: wild type, tetM plasmid: no) | 32 | 0.03 | ≤ 0.002 | 0.015 | 0.5 |
| Neisseria gonorrhoeae isolate 252 (blaTEM plasmid: no, gyrA: Phe91, Gly95, mtrR promoter: -35delA, parC: Ser87, Gly91, penA: ins345Asp, ponA: Pro421, porB: Asn120, Asp121, rpsJ: Met57, tetM plasmid: no) | 16 | 0.5 | 0.015 | 0.12 | 2 |
| Neisseria gonorrhoeae isolate 31 (blaTEM plasmid: no, gyrA: wild type, mtrR promoter: wild type, parC: wild type, penA: ins345Asp, ponA: wild type, porB: wild type, rpsJ: wild type, tetM plasmid: no) | 16 | ≤ 0.015 | ≤ 0.002 | 0.25 | 0.25 |
| Neisseria gonorrhoeae isolate 206 (blaTEM plasmid: no, gyrA: Phe91, Asn 95, mtrR promoter: wild type, parC: Arg 87, Glu91, penA: ins345Asp, ponA: Pro421, porB: wild type, rpsJ: Met57, tetM plasmid: no) | 16 | 0.25 | 0.004 | 0.06 | 0.5 |
| Neisseria gonorrhoeae isolate 496 (blaTEM plasmid: no, gyrA: wild type, mtrR promoter: wild type, parC: wild type, penA: ins345Asp, ponA: wild type, porB: wild type, rpsJ: wild type, tetM plasmid: no) | 16 | 0.06 | ≤ 0.002 | 0.12 | 0.06 |
| Neisseria gonorrhoeae isolate 119 (blaTEM plasmid: no, gyrA: wild type, mtrR promoter: wild type, parC: wild type, penA: wild type, ponA: wild type, porB: wild type, rpsJ: wild type, tetM plasmid: no) | 64 | 0.03 | ≤ 0.002 | 0.03 | 0.25 |
| Neisseria gonorrhoeae isolate 14 (blaTEM plasmid: no, gyrA: wild type, mtrR promoter: wild type, parC: wild type, penA: ins345Asp, ponA: wild type, porB: wild type, rpsJ: wild type, tetM plasmid: no) | 16 | 0.06 | 0.015 | 0.03 | 0.25 |
| Neisseria gonorrhoeae isolate 164 (blaTEM plasmid: no, gyrA: wild type, mtrR promoter: wild type, parC: wild type, penA: ins345Asp, ponA: wild type, porB: wild type, rpsJ: wild type, tetM plasmid: no) | 16 | 1 | 0.125 | 0.5 | 4 |
| Neisseria gonorrhoeae isolate 249 (blaTEM plasmid: no, gyrA: Phe91, Asn 95, mtrR promoter: wild type, parC: wild type, penA: ins345Asp, ponA: wild type, porB: Asp120, Gly121, rpsJ: Met57, tetM plasmid: yes) | 16 | 0.5 | ≤ 0.002 | 0.12 | 16 |
| Neisseria gonorrhoeae isolate 435 (blaTEM plasmid: no, gyrA: wild type, mtrR promoter: wild type, parC: wild type, penA: ins345Asp, ponA: wild type, porB: wild type, rpsJ: wild type, tetM plasmid: no) | 32 | 0.25 | ≤ 0.002 | 0.03 | 0.25 |
| Neisseria gonorrhoeae isolate 15 (blaTEM plasmid: no, gyrA: Thr91, Gly95, mtrR promoter: wild type, parC: wild type, penA: ins345Asp, ponA: wild type, porB: wild type, rpsJ: Met57, tetM plasmid: no) | 16 | 0.12 | ≤ 0.002 | 0.06 | 0.5 |
| Neisseria gonorrhoeae isolate 482 (blaTEM plasmid: no, gyrA: wild type, mtrR promoter: wild type, parC: wild type, penA: wild type, ponA: wild type, porB: wild type, rpsJ: wild type, tetM plasmid: no) | 16 | ≤ 0.015 | ≤ 0.002 | 0.12 | 0.12 |
